Data reported in PubChem BioAssay AID588453 (National Center for Advancing Translational Sciences (NCATS), 2011).
The whole screen tested about 390,000 compounds, of which about 4,000 (1%) were called active. Inconclusive results, whose numbers are uncertain, are shown with a selection of clear calls. Calls come from the whole dose curve; as a rule, active = well fitted inhibition curve with a large enough effect; inconclusive = small, poorly fitted or top-dose-only effect; inactive = no such curve, though single readings can be large or run the other way. Potencies of inconclusive entries are doubtful fits and often do not repeat.

The molecules below were run against Thioredoxin reductase 1, cytoplasmic (Rattus norvegicus) (UniProt O89049) (assay: qHTS Assay for Inhibitors of Mammalian Selenoprotein Thioredoxin Reductase 1 (TrxR1): qHTS). Conditions: recombinant rTrxR1, NADPH fluorescence consumption, selenite substrate; series mostly up to 114 µM.
Outline: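 Rat TrxR1 (90 nM in the dispensed reagent) was pre-reduced with 400 uM NADPH for 5 min at room temperature, then incubated with compound for 15 min. After 400 uM selenite was added, NADPH fluorescence (Ex 340/Em 450 nm) was followed for 8 min.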
Note: nearly all actives have a fitted effect of over 65% in size.
Potency is the fitted concentration of half-maximal effect; tags give direction and shape of the fitted curve.

UniProt O89049, sequence (O89049 whole entry, looked up): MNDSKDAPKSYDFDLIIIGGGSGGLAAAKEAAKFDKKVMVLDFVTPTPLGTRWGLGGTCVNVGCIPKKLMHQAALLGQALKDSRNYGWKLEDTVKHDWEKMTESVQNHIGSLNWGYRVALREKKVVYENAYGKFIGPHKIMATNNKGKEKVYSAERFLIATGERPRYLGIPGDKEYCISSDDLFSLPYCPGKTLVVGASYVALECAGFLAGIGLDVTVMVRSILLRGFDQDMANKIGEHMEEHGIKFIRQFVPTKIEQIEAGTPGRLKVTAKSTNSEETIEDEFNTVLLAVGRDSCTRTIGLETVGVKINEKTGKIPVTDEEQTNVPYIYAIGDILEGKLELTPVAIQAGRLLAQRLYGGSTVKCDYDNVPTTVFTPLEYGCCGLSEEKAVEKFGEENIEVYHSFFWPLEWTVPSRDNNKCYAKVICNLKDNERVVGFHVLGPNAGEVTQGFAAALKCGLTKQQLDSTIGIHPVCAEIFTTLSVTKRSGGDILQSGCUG

SMILES | Potency
N#Cc1ccc(-c2ccc(OCC(=O)Nc3cccnc3)cc2)cc1 | inactive
CN(CC(=O)Nc1ccc(Cl)c(Cl)c1)C(=O)CNC(=O)C1CCCCC1 | inconclusive: 35.5 µM [inhibitor, single point]
COc1ccc(Cl)cc1S(=O)(=O)N1CCC(C(=O)NCc2ccco2)CC1 | inconclusive: 70.8 µM [inhibitor, partial curve]
O=C(Nc1ccc(N2CCN(c3ccc(O)cc3)CC2)cc1)Oc1ccccc1 | inactive
O=C(CSc1cccc2cccc(Cl)c12)NC1=NCCS1 | inactive
CCOC(=O)c1c(NC(=O)c2noc(C)c2[N+](=O)[O-])sc(C(C)=O)c1C | inconclusive: 8.91 µM [inhibitor, partial curve]
CCc1ccc(-c2cc(C)no2)cc1S(=O)(=O)N1CCN(C(=O)c2ccco2)CC1 | inconclusive: 28.2 µM [inhibitor, full curve]
CC(NC(=O)OC(C)(C)C)C(=O)Oc1ccc2ccc(=O)oc2c1 (stereo not drawn) | inconclusive: 28.2 µM [inhibitor, partial curve]
O=C(Cc1ccc(Cl)cc1)Nc1ccccc1N1CCN(C(=O)c2ccccc2)CC1 | inactive
Cc1nc(-c2ccccc2)sc1C(=O)/C=C/N(C)C | inconclusive: 35.5 µM [inhibitor, partial curve]
O=C(COC(=O)c1ccc([N+](=O)[O-])o1)NC1CCCc2ccccc21 (stereo not drawn) | inconclusive: 39.8 µM [inhibitor, partial curve, poor fit]
Cc1ccc2cc(CCNC(=O)c3ccc(Br)o3)c(=O)[nH]c2c1 | inconclusive: 14.1 µM [inhibitor, full curve, poor fit]
OCC[n+]1ccc(/C=C/c2c[nH]c3ccccc23)cc1 | inactive
CCOc1ccc(NC(=O)c2c(NCc3cccnc3)sc3c2CCC(C)C3)cc1 (stereo not drawn) | inconclusive: 20 µM [inhibitor, partial curve]
CC1(C)CC(=O)C(C=NCCN2CCN(C(=O)NC34CC5CC(CC(C5)C3)C4)CC2)=C(O)C1 | inconclusive: 89.1 µM [inhibitor, single point]
Cc1cc(C)nc(/N=C(\N)N2CCCCC2)n1 | inactive
Cc1sc2nc(C3CC3)nc(SCC(=O)NCc3ccco3)c2c1C | inconclusive: 28.2 µM [inhibitor, partial curve]
COc1ccc(-c2cc(C(=O)N(C)Cc3ccc(OC)c(OC)c3OC)c3ccccc3n2)cc1OC | inconclusive: 89.1 µM [inhibitor, single point]
Cc1oc(-c2cccc(Cl)c2)nc1CN1CCC(C(=O)N2CCN(c3ccccc3F)CC2)CC1 | inconclusive: 39.8 µM [inhibitor, single point]
CC(=O)Nc1ccccc1NS(=O)(=O)c1ccccc1[N+](=O)[O-] | inconclusive: 56.2 µM [inhibitor, single point]
COc1ccccc1C(=O)Nc1ccnn1C1CCN(CCC(C)c2ccc(C)o2)CC1 (stereo not drawn) | inconclusive: 79.4 µM [inhibitor, single point]
CCn1cc(/C=C(\NC(=O)c2ccccc2Cl)C(=O)N2CCOCC2)c2ccccc21 | inactive

SMILES | Potency
CN1CCc2c(sc(NC(=O)c3ccc([N+](=O)[O-])o3)c2C(N)=O)C1 | inconclusive: 20 µM [inhibitor, partial curve, poor fit]
Cc1cccc2sc(NNC(=O)c3cc(-c4cccs4)nc4ccccc34)nc12 | inactive
COC(=O)CCCCC1SCC2NC(=O)NC21O (stereo not drawn) | inconclusive: 50.1 µM [inhibitor, partial curve]
CNc1ccc(/C=C/c2ccnc3ccccc23)cc1 | inactive
COc1ccc(NC(=S)NC(C)c2ccncc2)cc1OC (stereo not drawn) | inconclusive: 44.7 µM [inhibitor, partial curve, poor fit]
Cc1cc(-c2n[nH]c(=S)n2/N=C/c2cc([N+](=O)[O-])ccc2Cl)n[nH]1 | inconclusive: 44.7 µM [inhibitor, partial curve, poor fit]
O=S(=O)(c1ccc(F)cc1)N1CN(Cc2ccco2)c2nc3ccccc3nc21 | inconclusive: 28.2 µM [inhibitor, full curve]
O=C(Nc1ccc(-c2nc3ccccc3o2)c(O)c1)c1ccccc1 | inconclusive: 39.8 µM [inhibitor, single point]
Cc1cc(C)cc(NC(=O)CN2CCCN(S(=O)(=O)c3ccc(Br)s3)CC2)c1 | inconclusive: 56.2 µM [inhibitor, partial curve, poor fit]
COc1cc2cc(C(c3nnnn3C3CCCC3)N3CCCCCC3)c(=O)[nH]c2cc1OC (stereo not drawn) | inconclusive: 39.8 µM [inhibitor, single point]
CN1c2ccccc2C(C)(C)C12CCCC(=O)N2 (stereo not drawn) | inconclusive: 11.2 µM [inhibitor, full curve, poor fit]
Cc1csc(NC(=O)CSC2=NCCS2)n1 | inconclusive: 70.8 µM [inhibitor, partial curve]
Cc1[nH]n(-c2ccccc2)c(=O)c1C(C[N+](=O)[O-])c1ccc(Br)cc1 (stereo not drawn) | inconclusive: 10 µM [inhibitor, partial curve, poor fit]
CC1CC=CC2C1C(=O)N(Cc1ccccc1)C2c1ccoc1 (stereo not drawn) | inconclusive: 70.8 µM [inhibitor, single point]
CCS(=O)(=O)N1CCc2cc(C(=O)Nc3cccc(C)c3C)ccc21 | inactive
O=C1NC(=S)S/C1=C/c1ccc(N2CCOCC2)o1 | active: 12.6 µM
CCOc1ccc(N(C(=O)CNC(=O)c2ccco2)C(C(=O)NC2CCCC2)c2cccnc2)cc1 (stereo not drawn) | inconclusive: 89.1 µM [inhibitor, single point]
Cc1nnc(C)c2c(C)n(N)c(C)c12 | inconclusive: 28.2 µM [inhibitor, partial curve, poor fit]
COc1ccc(CNc2ncnc3c2[nH]c2ccccc23)cc1 | inactive
O=C(/C=C/c1ccco1)NC(=S)Nc1ccccc1N1CCOCC1 | inconclusive: 44.7 µM [inhibitor, partial curve]
O=C(CSc1nc(-c2ccccc2)[nH]c1-c1ccccc1)Nc1ccc2c(c1)OCO2 | inactive
